According to PMC12136788:
Some of the results follow.

T1: UNK ZnF1-3 (human, UniProt Q9C0B0 31-174)
T1 sequence: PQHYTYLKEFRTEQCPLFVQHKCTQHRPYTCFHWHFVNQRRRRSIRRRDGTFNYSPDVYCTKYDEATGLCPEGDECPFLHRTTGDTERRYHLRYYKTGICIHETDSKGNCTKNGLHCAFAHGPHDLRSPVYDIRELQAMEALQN

B1: chr17:66468409:66468410:+_ENSMUSG00000024101_ENSMUST00000116556|mus_mus|motif|central (ssRNA)
RNA: GGGAGUUCUACAGUCCGACGAUCUGGGAUGGAGUCUGACAUUCGAGAGAAGGCUCCUCCAGGUCCCUCACUGGUUCCAGUGCGGGGUCCCUUUCCAGAGAUACCUUUGCGCCUCAUGACAAGUUUGUUGAAGAGAUCUGACAUCAACAGAGGAUUGAGCAUCA
B2: 115427805_115427925_7963_3pUTR_ENSG00000165185_ENST00000337530|human|control|control (ssRNA)
RNA: GGGAGUUCUACAGUCCGACGAUCACAUGGAGGGGUGACACAGUAUGGCUUGAGAGAUGAAAUAUUUGCCAAACAAACCAAAACUGUGUUUAACUUUCUUAAAGUUAAUGGACUUCCAUGGCCUCCAGGAGGCAGUUUUGUCUCCAACAGAGGAUUGAGCAUCA
B3: chr2:201680209:201680210:+_ENSG00000082153_ENST00000409600|hu_mus|FALSE|FALSE (ssRNA)
RNA: GGGAGUUCUACAGUCCGACGAUCGUCAUCUGCCAGUGUACCACCCGGGGCCAGCAUUCCGCCAGCCACCAGAAUGUCAAAGAGUGUUUCUGCAUAGCGGCGGUAGUCAAGUUUUGCUCCAGAAGCAUCAAGAAACUUAGCUACCAACAGAGGAUUGAGCAUCA
B4: chr1:58468927:58468928:-_ENSMUSG00000026034_ENSMUST00000148330|mus_mus|mus_mus_mus_hu_False|78_98 (ssRNA)
RNA: GGGAGUUCUACAGUCCGACGAUCAAUUACUGAAAAAUGAAAGAUGUACCUUAGCUAGGCCAUGUAUGAACCAAAUUACCCAAACAAAAUAAACAUGGCAAUAUAAAAAUGUUAAGAAUUUACAAAGCUGUACAAAAUAACUUACAACAGAGGAUUGAGCAUCA
B5: 126170259_126170379_3002_3pUTR_ENSMUSG00000042500_ENSMUST00000084289|mouse|control|control (ssRNA)
RNA: GGGAGUUCUACAGUCCGACGAUCCAGAAAACACAAUCUAUGAGUAUCUAUUUCUUUAACAAAAAAACCCAACUGGCUCAAUUUUGUUGAUGUAUCAGACAGGGCUGCAGAGUAGACUCAGUGCAACCAUUCUGAGCUGCUGGUCAACAGAGGAUUGAGCAUCA
B6: chr7:888175:888176:+_ENSG00000164828_ENST00000456758|hu_hu|FALSE|FALSE (ssRNA)
RNA: GGGAGUUCUACAGUCCGACGAUCUUUGUAAUUUUCUGAUUCAUAACUGAGCUUCAUUAAAACCACUUGAAAAAGUUGAACUAAAAAUGAUGAAAAAGAUGAUGCAGUGUAUCUGGCCAGCCACAAAAUCCUAUUCACGUAGAACAACAGAGGAUUGAGCAUCA
B7: 36354044_36354164_315_CDS_ENSG00000092847_ENST00000373204|human|control|control (ssRNA)
RNA: GGGAGUUCUACAGUCCGACGAUCGUGGUACACGUCGAUCUUAGGGAUGUCCACCUCAAAGUAAUUGGCCAGGAGCUUGAUUGGUUUCCCCACAGUGCCAAUGCCAGGCCGGCGAGGUGCCUGGAACACCUGCUGCAGGGGGGGCAACAGAGGAUUGAGCAUCA
B8: chr1:54531653:54531654:-_ENSMUSG00000073678_ENSMUST00000097739|mus_mus|motif|central (ssRNA)
RNA: GGGAGUUCUACAGUCCGACGAUCACACAGAAGACAAACUCCUUCCAGAGGACAGAGCGUCCUGAAGCCAGCUCUCAUAAACGGCCCUCCUGCUAAUUUAUCCACAGUCCCCAACAGUUACUUAGAUAAUCAUUACUCGAUCAACAACAGAGGAUUGAGCAUCA
B9: 99969957_99978953_1055_CDS_ENSG00000164024_ENST00000296411|human|control|control (ssRNA)
RNA: GGGAGUUCUACAGUCCGACGAUCCUCAAUUGUAAAUACAUGGCCCGACUUCAUCACUCCAACUGCUUUAUUUUUAGCAUAGUGGGGUACAUUGGGAGCUGUAUGAAAAAGCUUGUGGAUUCCAUGCCCACAAUAGCUUCGAACCAACAGAGGAUUGAGCAUCA
B10: chr10:60145988:60145989:+_ENSG00000108064_ENST00000373895|hu_hu|FALSE|FALSE (ssRNA)
RNA: GGGAGUUCUACAGUCCGACGAUCAGAACUUACAGGUUUCUUUGGACAACUUGCCAAGACAGAUGAAAACCACCUCGGUAAAUACACAAAACUGAAGGGGGAGCGCAGUCGACUUCCACAGCCGGUGCACAGCUCUGCUCCAGACAACAGAGGAUUGAGCAUCA
B11: chr2:44436386:44436387:+_ENSG00000138032_ENST00000378551|hu_hu|motif|central (ssRNA)
RNA: GGGAGUUCUACAGUCCGACGAUCCUCUGAAUCUUUUUUCACCGCUUCAUCUGAGACCUUGGGAGCAUUUGAAAAGCAAACGGGUACAAUACUCAUGUUAUCUCGACUUCCCUUGUGUAAACAAGUGUCCACUACCCAAUUGCACAACAGAGGAUUGAGCAUCA
B12: chr13:74460584:74460585:-_ENSMUSG00000021577_ENSMUST00000022062|mus_mus|FALSE|FALSE (ssRNA)
RNA: GGGAGUUCUACAGUCCGACGAUCGUUUCAUCAGUAGGAGCGGAUAGCAGGAGGUACGGUGGCACAGUCAGCCUCAUUCAAGGUCUUGUCGAUAACAGGUCUGUACUCCAAAGUAACCUUGCCAGUCUUGAUGUCCACAUAUGACAACAGAGGAUUGAGCAUCA
B13: chr17:30807540:30807541:+_ENSG00000108671_ENST00000457654|hu_mus|FALSE|FALSE (ssRNA)
RNA: GGGAGUUCUACAGUCCGACGAUCGUUCUGAAUAGUUUCCAGAGCAGCUUCAUAAGUUUUAUCUACUGGGGGUUCAUCGAAAAUGAUCAGGACACCCUCCCCCUGGUCCAAAAUCCCAUGAAACUUCUUGUCAAGAAUCAUCUGCAACAGAGGAUUGAGCAUCA
B14: chr20:57485784:57485785:+_ENSG00000087460_ENST00000306090|hu_mus|FALSE|FALSE (ssRNA)
RNA: GGGAGUUCUACAGUCCGACGAUCGUCACGGCAGUCGUUGAAGACACGGCGGAUGUUCUCAGUGUCCACGGCGCAGGUAAAGUGAGGGUAGCAGUAGUGGCGCCCAUCUCCACUAGCAGUGCUGAUUCUCAGAAACUCAUCCCGCAACAGAGGAUUGAGCAUCA
B15: chr13:99559765:99559766:-_ENSMUSG00000041685_ENSMUST00000040340|mus_mus|FALSE|FALSE (ssRNA)
RNA: GGGAGUUCUACAGUCCGACGAUCCUGAACUUCCUUUAUUAAUUCCUGUAAUUUUCUAACAAGAUCCAAAUGACAAUUUGCUAAUUUCUCUGUAGAUGUUUUGAAUACAUCCCACAUUGGUGCAAAUGUUCCAAGUUGUGAAUACAACAGAGGAUUGAGCAUCA
B16: 28194310_28195255_3168_CDS_ENSMUSG00000024219_ENSMUST00000088027|mouse|control|control (ssRNA)
RNA: GGGAGUUCUACAGUCCGACGAUCGAUGAUCUCGUAGGUCAGGUUCACAUCCACUGUGCUGAAAACGUGGCAGUAGUGGUGGCUCGUCUGCAGGUCCUUGGUGAUGUACGCGAAGGUACACAGGUCCUCUGGGUCCUGCGCGGCCAACAGAGGAUUGAGCAUCA
B17: chr11:29607950:29607951:+_ENSMUSG00000020458_ENSMUST00000102843|mus_hu|FALSE|FALSE (ssRNA)
RNA: GGGAGUUCUACAGUCCGACGAUCAGGUGAGGAAUCUUCAACUAGCUCAGAAUGAUCAGGCACUGGCUGUUCAACUUUUGCCAUUUCUGAAUAAUCAGAGAAAUCCGGAGCUGGUUCAGCAGAAAGCUUUGUUUCUUUAAUUAACAACAGAGGAUUGAGCAUCA
B18: chr9:37441256:37441257:-_ENSG00000168795_ENST00000307750|hu_hu|motif|central (ssRNA)
RNA: GGGAGUUCUACAGUCCGACGAUCAGGCCCAGCCUCUGGACUCAACAAAUAGGGGGCCUCACUCUCCAGCCUGCAGUCACGGGUGGUGUUUGGAAUAUUAUCAUCAUUGUUCUGAUUUGCAGUAAAGUUAUUUCCUCUGCUCUUCAACAGAGGAUUGAGCAUCA
B19: 138058577_138059462_3783_3pUTR_ENSMUSG00000041642_ENSMUST00000075164|mouse|control|control (ssRNA)
RNA: GGGAGUUCUACAGUCCGACGAUCGGCCAGGGACUUGGUGAUGUUCUUGGUAGAGCUGUCCAAUGGGGGUCCUAGGCACUCCGCAGACACGGCCUUCAUCUGUGCGGAUAGCUUGGGCUCACCCUUGAACUUGAAGUCAUCGUGCAACAGAGGAUUGAGCAUCA
B20: 130808380_130808500_3123_CDS_ENSMUSG00000027312_ENSMUST00000028781|mouse|control|control (ssRNA)
RNA: GGGAGUUCUACAGUCCGACGAUCGGGCUGUGGAUACACAUUUCCUGCAGAGGCCUGUGACGGCAUCUUCACAGGUCCUUUAUAGCUGCCCUCAAUACAUUUUCCUUUCCCAGUAUUGCUAGGAUCAGUACACCAACCACAGCCCAACAGAGGAUUGAGCAUCA
B21: chr9:111179681:111179682:+_ENSMUSG00000046785_ENSMUST00000060711|mus_mus|FALSE|FALSE (ssRNA)
RNA: GGGAGUUCUACAGUCCGACGAUCGGACUUAACACUAGAGAGCUGAUUUUUGAGUACACCUAGGUUUGAAUCUUGACAUUACUACUAGUUUACUAGGGUAAAUUACAGUCUGUUUUCUUAACAACAUUCACAUAAUAUUUGAACCAACAGAGGAUUGAGCAUCA
B22: 62105671_62122614_689_CDS_ENSMUSG00000042298_ENSMUST00000050646|mouse|control|control (ssRNA)
RNA: GGGAGUUCUACAGUCCGACGAUCGGAGAAUAGCAGAUAGCGUGCACAAGAGUCUAAGCACAUACCAAGGAGGAGGUAAGUAUUGGCUGUUUCUUCUGACAUAAUAUCUUCUGCUAAUUCCUUUUCUCUUUCAAUUUUCCCCUCCAACAGAGGAUUGAGCAUCA

biological target: T1, UNK ZnF1-3; assay: nsRBNS (natural sequence RNA bind-n-seq); RBNS binding buffer (assumed for nsRBNS): 25 mM Tris pH 7.5, 150 mM KCl, 3 mM MgCl2, 0.01% Triton X-100, 500 ug/ml BSA, 20 U/ml SUPERase-In, 4 C; UNK is unkempt and MSI1 is Musashi-1; names of the RNAs are library labels; protein concentration not given here; high values mean tight binding

Binder	binding signal [enrichment R]
B1	0.466
B2	0.603
B3	0.598
B4	2.84
B5	1.13
B6	1.3
B7	0.865
B8	1.62
B9	1.03
B10	0.929
B11	0.895
B12	0.827
B13	0.785
B14	0.942
B15	0.714
B16	0.804
B17	1.69
B18	0.825
B19	0.657
B20	0.866
B21	0.712
B22	1.26
